# Experimental data from PubChem BioAssay AID1345082 (National Center for Advancing Translational Sciences (NCATS), 2018).
# About 4,000 (4.3%) of roughly 94,000 compounds were called active. This list was built around the results that the source calls inconclusive (neither active nor inactive); the mix of calls is not that of the screen. Calls follow the shape of the dose curve; as a rule, active = well fitted inhibition curve with a large enough effect; inconclusive = small, poorly fitted or top-dose-only effect; inactive = no such curve, though single readings can be large or run the other way. Potencies of inconclusive entries are doubtful fits and often do not repeat.
# Assay: Cytotoxic Profiling in NIH 3T3 Cell Line of Diverse Libraries Using Quantitative High-Throughput Screening; also: nearly all actives have a fitted effect of over 55% in size
# Conditions: NIH 3T3 viability, CellTiter-Glo ATP luminescence, 48-72 h; series mostly up to 96.7 µM
# How it was run: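 ATP-dependent luminescence (CellTiter-Glo) served as the viability signal for NIH 3T3 cells treated with compound for 48 or 72 hr at 37 °C.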
# Potency is read from the fitted curve at half-maximal effect; tags tell the direction and shape of the fitted curve.
row,Structure (SMILES),Potency
1,Cc1ccc(C(=O)N2CCN(C(=O)c3nnn4c3COC(c3ccc(Cl)cc3)C4)CC2)c(C)c1 (centres undefined),"inconclusive: 31.6 µM [inhibitor, partial curve]"
2,CCNC(=O)OC1CCN(C(=O)c2ncoc2-c2ccccc2)CC(=O)N(C)c2ccccc21 (centres undefined),"inconclusive: 44.7 µM [inhibitor, partial curve, poor fit]"
3,CNC(=O)[C@@H]1CN(C(=O)c2cccc(OC)c2)C[C@H]1COC,inactive
4,O=C(c1ccc(Cl)cn1)N1CCCCC12Cc1ccccc1NC2=O (centres undefined),inactive
5,CC(=O)c1cccc(NC(=O)c2cnc(-c3ccc(C)cc3)nc2-c2ccncc2)c1,"inconclusive: 50.1 µM [inhibitor, partial curve, poor fit]"
6,NC(=O)Cc1c[nH]c2ncc(-c3ccc(Cl)cc3)cc12,"inconclusive: 17.8 µM [inhibitor, full curve, poor fit]"
7,COC(=O)C1=C(C)N=C2SC=C(CC(=O)NCCc3cccs3)N2C1c1ccccc1Cl (centres undefined),"inconclusive: 44.7 µM [inhibitor, partial curve, poor fit]"
8,O=C(NCc1ccccc1Cl)c1ccc2nnc(Cc3ccco3)n2c1,"inconclusive: 63.1 µM [inhibitor, partial curve, poor fit]"
9,Cn1ncc2c(C(=O)NC3CC3)cc(-c3ccccc3)nc21,"inconclusive: 79.4 µM [inhibitor, partial curve, poor fit]"
10,Fc1ccc(CN2CCn3c(nnc3-c3ccccc3)C2)cc1,"inconclusive: 63.1 µM [inhibitor, partial curve, poor fit]"
11,O=C(N[C@H]1CCN2C(=O)N(c3ccccc3)C(=O)[C@@H]2C1)C1CCCC1,inactive
12,CCC1(O)CCC12CCN(C(=O)CCc1ccc(OC)cc1)CC2 (centres undefined),inactive
13,COc1cccc(CC(=O)N2C[C@@H](CO)[C@H](c3nc(C4CC4)no3)C2)c1,inactive
14,Cc1nn(-c2ccccc2)c2c1C(C1CC1)N(C1CCN(C(=O)C(C)C)C1)C2=O (centres undefined),"inconclusive: 39.8 µM [inhibitor, partial curve, poor fit]"
15,CCN(CC)Cc1cnc2c(C(=O)Nc3ccc(Cl)cc3C)cnn2c1,inactive
16,CCn1cc(CN2CCC(N3CC(OCCOC)C34CCCCC4)CC2)cn1 (centres undefined),inactive
17,COc1ccc(-c2ccc3c(n2)c(=O)ncn3CC2CC2)cc1OC,"inconclusive: 100 µM [inhibitor, single point]"
18,CCOC(=O)C1=CN(CC(=O)NCCc2ccc(Cl)cc2)S(=O)(=O)N=C1C,inactive
19,COc1ccc(C(=O)N2CCOCC3(C2)CN(c2nccs2)C3)cc1OC,"inconclusive: 112 µM [inhibitor, single point]"
